Data on one molecule can be found in the supplement of paper PMC8728848.

The list shows a part of the results.

Assay in all cases: glycan array binding signal (z-score within array); higher = stronger binding
Holding throughout (details): glycan notation: IUPAC condensed, linker removed

For experiment [1], the target named is Gal(b1-4)GlcNAc(b1-3)Gal(b1-4)Glc. Put shortly: (§1)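 Negative Z-scores can be read as non-binding. The Z-score is calculated within each array and then averaged across arrays of one protein sequence at different concentrations or buffers and across linkers. Arrays, 3228 in all, were curated from the Consortium for Functional Glycomics database and kept only where the protein sequence was available.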

The target in experiment [2] is Gal(b1-4)GlcNAc(b1-3)Gal(b1-4)GlcNAc. A digest of the protocol:
as §1

For experiment [3], the target named is Gal(b1-4)GlcNAc(b1-3)Gal(b1-4)GlcNAc(b1-2)Man(a1-3)[Gal(b1-4)GlcNAc(b1-3)Gal(b1-4)GlcNAc(b1-2)Man(a1-6)]Man(b1-4)GlcNAc(b1-4)GlcNAc. A digest of the protocol: as §1
The target of experiment [4] is Gal(b1-4)GlcNAc(b1-3)Gal(b1-4)GlcNAc(b1-2)Man(a1-3)[Gal(b1-4)GlcNAc(b1-3)Gal(b1-4)GlcNAc(b1-2)Man(a1-6)]Man(b1-4)GlcNAc(b1-4)[Fuc(a1-6)]GlcNAc. Put shortly:
as §1

For experiment [5], the target named is Gal(b1-4)GlcNAc(b1-3)Gal(b1-4)GlcNAc(b1-2)[Gal(b1-4)GlcNAc(b1-3)Gal(b1-4)GlcNAc(b1-6)]Man(a1-6)[Gal(b1-4)GlcNAc(b1-3)Gal(b1-4)GlcNAc(b1-2)Man(a1-3)]Man(b1-4)GlcNAc(b1-4)GlcNAc. A digest of the protocol: as §1
In experiment [6] the target is Gal(b1-4)GlcNAc(b1-3)Gal(b1-4)GlcNAc(b1-2)[Gal(b1-4)GlcNAc(b1-3)Gal(b1-4)GlcNAc(b1-6)]Man(a1-6)[Gal(b1-4)GlcNAc(b1-3)Gal(b1-4)GlcNAc(b1-2)Man(a1-3)]Man(b1-4)GlcNAc(b1-4)[Fuc(a1-6)]GlcNAc. A digest of the protocol: as §1
Experiment [7] has as its target Gal(b1-4)GlcNAc(b1-3)Gal(b1-4)GlcNAc(b1-3)Gal(b1-4)GlcNAc. Put shortly: as §1
Experiment [8] deals with Gal(b1-4)GlcNAc(b1-3)Gal(b1-4)GlcNAc(b1-3)Gal(b1-4)GlcNAc(b1-2)Man(a1-3)[Gal(b1-4)GlcNAc(b1-3)Gal(b1-4)GlcNAc(b1-3)Gal(b1-4)GlcNAc(b1-2)Man(a1-6)]Man(b1-4)GlcNAc(b1-4)GlcNAc. A digest of the protocol: as §1
Experiment [9] addresses Gal(b1-4)GlcNAc(b1-3)Gal(b1-4)GlcNAc(b1-3)Gal(b1-4)GlcNAc(b1-2)Man(a1-3)[Gal(b1-4)GlcNAc(b1-3)Gal(b1-4)GlcNAc(b1-3)Gal(b1-4)GlcNAc(b1-2)Man(a1-6)]Man(b1-4)GlcNAc(b1-4)[Fuc(a1-6)]GlcNAc. Put shortly: as §1
In experiment [10] the target is Gal(b1-4)GlcNAc(b1-3)Gal(b1-4)GlcNAc(b1-3)Gal(b1-4)GlcNAc(b1-2)[Gal(b1-4)GlcNAc(b1-3)Gal(b1-4)GlcNAc(b1-3)Gal(b1-4)GlcNAc(b1-6)]Man(a1-6)[Gal(b1-4)GlcNAc(b1-3)Gal(b1-4)GlcNAc(b1-3)Gal(b1-4)GlcNAc(b1-2)Man(a1-3)]Man(b1-4)GlcNAc(b1-4)[Fuc(a1-6)]GlcNAc. A digest of the protocol: as §1
Experiment [11] concerns the target Gal(b1-4)GlcNAc(b1-3)Gal(b1-4)GlcNAc(b1-3)Gal(b1-4)GlcNAc(b1-3)Gal(b1-4)GlcNAc(b1-2)Man(a1-3)[Gal(b1-4)GlcNAc(b1-3)Gal(b1-4)GlcNAc(b1-3)Gal(b1-4)GlcNAc(b1-3)Gal(b1-4)GlcNAc(b1-2)Man(a1-6)]Man(b1-4)GlcNAc(b1-4)GlcNAc. A digest of the protocol: as §1
The target of experiment [12] is Gal(b1-4)GlcNAc(b1-3)Gal(b1-4)GlcNAc(b1-3)Gal(b1-4)GlcNAc(b1-3)Gal(b1-4)GlcNAc(b1-2)Man(a1-3)[Gal(b1-4)GlcNAc(b1-3)Gal(b1-4)GlcNAc(b1-3)Gal(b1-4)GlcNAc(b1-3)Gal(b1-4)GlcNAc(b1-2)Man(a1-6)]Man(b1-4)GlcNAc(b1-4)[Fuc(a1-6)]GlcNAc. A digest of the protocol:
as §1

Experiment [13] deals with Gal(b1-4)GlcNAc(b1-3)Gal(b1-4)GlcNAc(b1-3)Gal(b1-4)GlcNAc(b1-3)Gal(b1-4)GlcNAc(b1-2)[Gal(b1-4)GlcNAc(b1-3)Gal(b1-4)GlcNAc(b1-3)Gal(b1-4)GlcNAc(b1-3)Gal(b1-4)GlcNAc(b1-6)]Man(a1-6)[Gal(b1-4)GlcNAc(b1-3)Gal(b1-4)GlcNAc(b1-3)Gal(b1-4)GlcNAc(b1-3)Gal(b1-4)GlcNAc(b1-2)Man(a1-3)]Man(b1-4)GlcNAc(b1-4)[Fuc(a1-6)]GlcNAc. A digest of the protocol:
as §1

Experiment [14] addresses Gal(b1-4)GlcNAc(b1-3)Gal(b1-4)GlcNAc(b1-3)Gal(b1-4)GlcNAc(b1-3)Gal(b1-4)GlcNAc(b1-3)Gal(b1-4)GlcNAc(b1-2)Man(a1-3)[Gal(b1-4)GlcNAc(b1-3)Gal(b1-4)GlcNAc(b1-3)Gal(b1-4)GlcNAc(b1-3)Gal(b1-4)GlcNAc(b1-3)Gal(b1-4)GlcNAc(b1-2)Man(a1-6)]Man(b1-4)GlcNAc(b1-4)GlcNAc. Put shortly:
as §1

The target of experiment [15] is Gal(b1-4)GlcNAc(b1-3)Gal(b1-4)GlcNAc(b1-3)Gal(b1-4)GlcNAc(b1-3)Gal(b1-4)GlcNAc(b1-3)Gal(b1-4)GlcNAc(b1-2)Man(a1-3)[Gal(b1-4)GlcNAc(b1-3)Gal(b1-4)GlcNAc(b1-3)Gal(b1-4)GlcNAc(b1-3)Gal(b1-4)GlcNAc(b1-3)Gal(b1-4)GlcNAc(b1-2)Man(a1-6)]Man(b1-4)GlcNAc(b1-4)[Fuc(a1-6)]GlcNAc. Put shortly:
as §1

The target in experiment [16] is Gal(b1-4)GlcNAc(b1-3)Gal(b1-4)GlcNAc(b1-3)Gal(b1-4)GlcNAc(b1-3)Gal(b1-4)GlcNAc(b1-3)Gal(b1-4)GlcNAc(b1-2)[Gal(b1-4)GlcNAc(b1-3)Gal(b1-4)GlcNAc(b1-3)Gal(b1-4)GlcNAc(b1-3)Gal(b1-4)GlcNAc(b1-3)Gal(b1-4)GlcNAc(b1-6)]Man(a1-6)[Gal(b1-4)GlcNAc(b1-3)Gal(b1-4)GlcNAc(b1-3)Gal(b1-4)GlcNAc(b1-3)Gal(b1-4)GlcNAc(b1-3)Gal(b1-4)GlcNAc(b1-2)Man(a1-3)]Man(b1-4)GlcNAc(b1-4)[Fuc(a1-6)]GlcNAc. A digest of the protocol: as §1

Experiment [17] deals with Gal(b1-4)GlcNAc(b1-3)Gal(b1-4)GlcNAc(b1-3)Gal(b1-4)GlcNAc(b1-3)Gal(b1-4)GlcNAc(b1-3)Gal(b1-4)GlcNAc(b1-3)Gal(b1-4)GlcNAc(b1-2)Man(a1-3)[Gal(b1-4)GlcNAc(b1-3)Gal(b1-4)GlcNAc(b1-3)Gal(b1-4)GlcNAc(b1-3)Gal(b1-4)GlcNAc(b1-3)Gal(b1-4)GlcNAc(b1-3)Gal(b1-4)GlcNAc(b1-2)Man(a1-6)]Man(b1-4)GlcNAc(b1-4)GlcNAc. Put shortly: as §1
Experiment [18] concerns the target Gal(b1-4)GlcNAc(b1-3)Gal(b1-4)GlcNAc(b1-3)GalNAc. A digest of the protocol: as §1
Experiment [19] concerns the target Gal(b1-4)GlcNAc(b1-3)Gal(b1-4)GlcNAc(b1-3)[Gal(b1-4)GlcNAc(b1-3)Gal(b1-4)GlcNAc(b1-6)]GalNAc. A digest of the protocol: as §1

B1: PX9937D-bvu-500-26-500 (Bacteroides vulgatus) (protein)
chain: DPVSDITDLNYWKTPEQFDSFVFGLHSRFRSHSWNMFLLGEARSDVFGGIPFGGEATQGMERFPYNTLNAENPGISGFGDLYQNINQMNLFISRTLHTDVLTESARNYYLGQVYGLRAYYMYQLYRSWGDVVFTEEPSLGFEVGKLAKAATPAAEIFEQVKKDIESSLSYFGSDYTIKEKKSLWSKAATLMLKADVYLWSAHRDGGEGDARTAKNALVDIQNNISRSNLDLMDTYQGVFAYDNKGNKEIIFTIHNELFEYNLWNGNNDLFPQADYLGKFYNADGTLINTSVENNFGIMRLMVKLENFKKFLPGDTRRDVTLKDVYNKVENGKLELVGVYPHKYWGVMNGSTRVRCDDYPIYRYSDLLLMLAEAKVLLGEDPATEINRVRRRAFGDAYDASTVGFPNQEVDKRPADAVLQERLFEFMLEGKRWYDLRRFGDSYVLDYTPAEPARLLWPINQGALTNNPLLKQTVGY
B1: the “glycan array binding signal (z-score)” value in experiment [1] is -0.102; in experiment [2], -0.174; in experiment [3] it was 0.66; in [4], 0.402; in experiment [5] it was 0.413; in [6], 0.184. The “glycan array binding signal (z-score)” value in experiment [7] is -0.407; in [8], 0.184; in [9] it was 0.333; in experiment [10] it was 1.63; in [11], 0.731; in [12], 0.083. Also, the “glycan array binding signal (z-score)” value was 1.17 in experiment [13]; -0.026 in experiment [14]; 0.497 in experiment [15]; 1.93 in [16]; 2.58 in experiment [17]; -0.444 in experiment [18]. Moreover, the “glycan array binding signal (z-score)” value in experiment [19] amounted to 0.311.
